32 molecules from PubChem BioAssay (NCI) can be followed below.

The experiment deals with NCI-H322M lung. In words: NCI-60 cell line screen, 48 h.

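Compound exposure: 48 hours, 5 concentrations, 96-well plates. GI50 = concentration required for 50% inhibition of growth. TGI marks complete inhibition of growth.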 A value given as a limit tells only on which side of the number the result lay.

In the case of `CN1C/C=C/CCOc2cccc(c2)-c2ccnc(n2)Nc2cccc(c2)C1`, the GI50 is 0.0429 µM and the TGI is 0.805 µM. Consider `Oc1cc2ccccc2c(-c2c(O)c(O)cc3ccccc23)c1O`, for which the GI50 was 2.46 µM and the TGI turned out to be 34.1 µM. `Cc1ccc(S(=O)OCC23CC4CC(CC(C4)C2)C3)cc1` (stereo not drawn): the TGI is above 100 µM. On to `COc1ccc2nc3cc(Cl)ccc3c(Sc3ccc([N+](=O)[O-])cc3)c2c1`, for which the GI50 is above 100 µM and the TGI is above 100 µM. For `CN(Cc1cc(Cl)cc(Cl)c1O)Cc1c(O)ccc2ccccc12`, the TGI amounted to 36.6 µM.

In turn, `COC(=O)C(C/C=C(\C)c1ccc(Cl)cc1)C(C)=O` (stereo not drawn) gave a TGI above 100 µM. `Cn1cc(C2=C(c3cn(C)c4ccccc34)C(=O)NC2=O)c2ccccc21`: the GI50 is above 20.7 µM and the TGI is above 25 µM.

As to `N#C[Se]CCCNS(=O)(=O)C1CC2C=CC1C2` (stereo not drawn), the GI50 was 0.852 µM and the TGI was determined as 3.89 µM. `CS(=O)(=O)CC(=O)c1ccccc1`: the TGI was above 100 µM. Regarding `CCOc1cccc(-c2nc(N)nc(Nc3ccccc3SSc3ccccc3Nc3nc(N)nc(-c4cccc(OCC)c4)n3)n2)c1`, the GI50 was 34.9 µM and the TGI was above 100 µM. For `CC1C(OC2O[C@@H]3O[C@@]4(C)CC[C@H]5[C@H](C)CC[C@@H](C2C)[C@@]35O4)O[C@@H]2O[C@@]3(C)CC[C@H]4[C@H](C)CC[C@@H]1[C@@]24O3` (stereo partly drawn), the TGI is above 50 µM. `Cc1cc(S(=O)(=O)/N=C(/[N-]S(=O)(=O)c2ccc(Cl)cc2)[n+]2ccc(N(C)C)cc2)c(SCC(=O)O)cc1Cl`: the TGI is above 100 µM. Consider `CC(=O)N1N=C2/C(=C/c3ccc(Cl)cc3)CC(C)CC2C1c1ccc(Cl)cc1` (stereo not drawn), for which the GI50 is 32.9 µM and the TGI is above 100 µM. As to `O=C(c1ccc(Cl)cc1)N(C(=S)OCc1ccccn1)c1ccccc1`, the TGI is above 100 µM.

Take `CC(=O)OC12c3ccccc3-c3ccccc3C1C1C(=O)OC(=O)C12` (stereo not drawn): the TGI is above 10 µM.

Take `COc1ccc(C(=O)C(c2ccc(OCc3ccccc3)cc2)c2ccc(OCc3ccccc3)cc2)cc1`: the TGI was above 100 µM.

For `O=c1oc2ccc(Br)cc2c(=O)n1-c1ccc(I)cc1F`, the GI50 is 0.333 µM and the TGI was 8.64 µM. `COc1ccc(/C=C2\CCC/C(=C\c3ccc(O)c(CN4CCCCC4)c3)C2=O)cc1` displayed a TGI above 81.4 µM. `COc1ccccc1/C=C1\NC(=S)N(/C=C2\C(=O)Oc3ccccc3C2=O)C1=O` had a TGI above 100 µM.

`C1CC[C@H]2SSC3CCCC[C@H]3SSC2C1` (stereo partly drawn) had a TGI above 100 µM. For `CSC12c3cc(C)n(-c4ccccc4)c3CC(C)(C)CN1C(=O)C2Oc1ccccc1` (stereo not drawn), the TGI was above 100 µM. Take `CCOC(=O)C(NC(=O)c1ccccc1)(Nc1ccc(Cl)cc1C(F)(F)F)C(F)(F)F` (stereo not drawn): the TGI is above 100 µM. The molecule `CC1CCC2(CC1)NC1=C(CC(C)CC1)C1=C2CC(C)CC1` (stereo not drawn) gave a TGI of 79.8 µM. `Cc1c2ccncc2c(C)c2c1[nH]c1ccc(OCC(F)(F)F)cc12` yielded a TGI of 3.59 µM.

With `CC(=O)OC12COC1CC(O)C1(C)C(=O)C(O)C3=C(C)C(O)CC(O)(C(OC(=O)c4ccccc4)C21)C3(C)C` (stereo not drawn), the TGI was above 100 µM. `COc1ccc(C(=O)/C=C/c2ccc(OCCSCCCCCCCCCCSCCOc3ccc(/C=C/C(=O)c4ccc(OC)c(OC)c4)cc3)cc2)cc1OC` yielded a TGI above 100 µM. Regarding `O=C1c2cccc(NCCN=Cc3ccccc3O)c2C(=O)c2c(NCCN=Cc3ccccc3O)cccc21`, the GI50 was 0.59 µM and the TGI was determined as 3.61 µM.

`Cc1ccc(NC(=O)/C(Cl)=C(/Cl)C(=O)O)cc1` had a TGI above 100 µM. Turning to `C[N+](C)(C)CC(=O)N/N=C/c1ccncc1`, the TGI is above 100 µM. As to `CCN1Cc2nc3sc(C)c(C)c3c(=O)n2C=C1C`, the GI50 was 32.3 µM and the TGI is above 100 µM. Molecule `O=c1cn[nH]c(=S)n1/N=C/c1c[nH]c2ccccc12` displayed a TGI above 100 µM.

As for `COc1cc([N+](=O)[O-])c(OC)cc1-c1nc2sc(Cl)cn2c1/C=N/NC1=NCCN1`, the GI50 is 1.23 µM and the TGI was determined as 2.6 µM.
